Measured values from the supplement of paper PMC10126150.
Values marked as one replicate rest on one cluster of the flow cell; about a third of the high ones do not repeat.
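Further: ATP exposure 15 min at 22 °C before imaging.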

These sequences were tested on ATP (assay: switch fluorescence ratio, 500 uM ATP over buffer (Cy3 cluster intensity, sum of 5 cycles each) (fold (ratio)); higher = stronger signal-on switching upon ATP binding; sequences stand for … in TCGTCGGCAGCGTCAGATGTGTATAAGAGACAGTTTTTTTTTTTTTTTTTTTTTTTTT…TC). Details: aptamer strand: ATP DNA aptamer (quencher-CACCTGGGGGAGTATTGCGGAGGAAGG + anchor), 100 nM annealed; ATP concentration: 500 uM; one replicate.
Procedure, shortened: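 Imaging in selection buffer was followed by imaging after 15 min with 500 uM ATP at 22 °C, for Cy3-labelled switching-strand clusters annealed to 100 nM quencher-labelled ATP aptamer on a modified Illumina MiSeq flow-cell. Five of these buffer/ATP cycles ran, separated by NaOH stripping and re-annealing. The fluorescence ratio per cluster is summed target-cycle over summed buffer-cycle Cy3 intensity, averaged per switch-domain sequence; clusters outside 100-1000 RFU were removed.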
AGCATCCTCA showed a switch fluorescence ratio of 1.06. AGCATCGCG gave a switch fluorescence ratio of 1.03. With AGCATGACTG the switch fluorescence ratio was 1.08. For AGCATGCTTA, the switch fluorescence ratio was 0.986. With AGCCAAATTG the switch fluorescence ratio was 0.99. Work on AGCCAATAG yielded a switch fluorescence ratio of 3.59. Sequence AGCCAATGAT has a switch fluorescence ratio of 0.98. Sequence AGCCAATGCC has a switch fluorescence ratio of 1.12. With AGCCACGAAA the switch fluorescence ratio was 1.11. With AGCCACGCGC the switch fluorescence ratio was 1.03. For AGCCAGTACG, the switch fluorescence ratio was 1.07. In the case of AGCCATCACC, the switch fluorescence ratio is reported as 1.05. In the case of AGCCGACGAA, the switch fluorescence ratio is reported as 1.2. For AGCCGCCACA, the switch fluorescence ratio was 1.06. Work on AGCCGGCTTC yielded a switch fluorescence ratio of 1.04. For AGCCGGGGCG, the switch fluorescence ratio was 1.08. Work on AGCCGTGGGC yielded a switch fluorescence ratio of 0.98. In the case of AGCCTATGTG, the switch fluorescence ratio is reported as 1.02. Sequence AGCCTGAGGC has a switch fluorescence ratio of 0.959. AGCCTGCTTT gave a switch fluorescence ratio of 0.997. With AGCCTGGGGT the switch fluorescence ratio was 1.02. Work on AGCCTGTAGC yielded a switch fluorescence ratio of 1.03. Sequence AGCCTGTCAG has a switch fluorescence ratio of 1.01. Sequence AGCCTTAGAA has a switch fluorescence ratio of 1.02. In the case of AGCGAAACCT, the switch fluorescence ratio is reported as 1.57. In the case of AGCGAAATAA, the switch fluorescence ratio is reported as 1.06. With AGCGAACGGA the switch fluorescence ratio was 1.01. In the case of AGCGAATCCT, the switch fluorescence ratio is reported as 1.07. With AGCGACAAAA the switch fluorescence ratio was 1. In the case of AGCGACGTAG, the switch fluorescence ratio is reported as 1.02. In the case of AGCGAGCTGA, the switch fluorescence ratio is reported as 1.02. AGCGAGCTGG showed a switch fluorescence ratio of 0.983. AGCGATATTA was tested, and the switch fluorescence ratio was 1.06. Work on AGCGATCATT yielded a switch fluorescence ratio of 1.03. Sequence AGCGCCCGCG has a switch fluorescence ratio of 1. In the case of AGCGCCTATC, the switch fluorescence ratio is reported as 1. AGCGCCTGAG gave a switch fluorescence ratio of 1.02. Work on AGCGCCTGCG yielded a switch fluorescence ratio of 0.992. For AGCGCGATT, the switch fluorescence ratio was 1.02. Work on AGCGCGGATG yielded a switch fluorescence ratio of 0.979. Sequence AGCGCTTG has a switch fluorescence ratio of 0.994. Work on AGCGGATTG yielded a switch fluorescence ratio of 0.973. Work on AGCGGCGTTC yielded a switch fluorescence ratio of 1. For AGCGGGCAGC, the switch fluorescence ratio was 1.01. Work on AGCGGGGAGA yielded a switch fluorescence ratio of 1.07. Sequence AGCGGTAGTT has a switch fluorescence ratio of 0.982. Work on AGCGGTATCT yielded a switch fluorescence ratio of 1.06. Sequence AGCGTAGGG has a switch fluorescence ratio of 1.03. For AGCGTCAACC, the switch fluorescence ratio was 1.06. Sequence AGCGTCCCAT has a switch fluorescence ratio of 1.05. With AGCGTCTTAT the switch fluorescence ratio was 1.01. Work on AGCGTTGCTA yielded a switch fluorescence ratio of 0.961. AGCGTTTTGT was tested, and the switch fluorescence ratio was 1.03. AGCTACACTA was tested, and the switch fluorescence ratio was 1.06. In the case of AGCTAGGACC, the switch fluorescence ratio is reported as 1.03. In the case of AGCTATATAA, the switch fluorescence ratio is reported as 1. AGCTATCATA showed a switch fluorescence ratio of 0.967. AGCTATGATT was tested, and the switch fluorescence ratio was 0.992. For AGCTCAAAAC, the switch fluorescence ratio was 1. With AGCTCACCTC the switch fluorescence ratio was 1.1. Work on AGCTCACGCA yielded a switch fluorescence ratio of 1.17. With AGCTCACGTC the switch fluorescence ratio was 1.12. AGCTCAGTCG showed a switch fluorescence ratio of 0.985. AGCTCGAGGG was tested, and the switch fluorescence ratio was 0.997. AGCTCGGTGC gave a switch fluorescence ratio of 0.994. Work on AGCTCTACTC yielded a switch fluorescence ratio of 2.04. AGCTCTCCAC showed a switch fluorescence ratio of 1.14. AGCTCTTTGA showed a switch fluorescence ratio of 0.997. AGCTGACGGA gave a switch fluorescence ratio of 1. In the case of AGCTGCATAT, the switch fluorescence ratio is reported as 1.12. AGCTGGAACG gave a switch fluorescence ratio of 0.989. Work on AGCTGGGCGA yielded a switch fluorescence ratio of 1.02. Sequence AGCTGGTTT has a switch fluorescence ratio of 0.991. AGCTGTGGAT showed a switch fluorescence ratio of 1.05. Sequence AGCTGTTGAA has a switch fluorescence ratio of 0.987. In the case of AGCTGTTTGT, the switch fluorescence ratio is reported as 0.995. AGCTTAACAG gave a switch fluorescence ratio of 1.01. Sequence AGCTTAAGTG has a switch fluorescence ratio of 0.953. AGCTTCAGTG was tested, and the switch fluorescence ratio was 0.982. AGCTTCCCCC gave a switch fluorescence ratio of 1.7. Work on AGCTTCGGGA yielded a switch fluorescence ratio of 0.985. AGCTTCTTTA was tested, and the switch fluorescence ratio was 1.02. With AGCTTGGCG the switch fluorescence ratio was 1.03. For AGCTTGGGGA, the switch fluorescence ratio was 1.06. With AGCTTGTTGG the switch fluorescence ratio was 0.976. With AGCTTTCATG the switch fluorescence ratio was 0.962. Work on AGCTTTTCCC yielded a switch fluorescence ratio of 1.08. AGCTTTTTT gave a switch fluorescence ratio of 0.963. With AGGAAAAAAC the switch fluorescence ratio was 1.23. Work on AGGAAAAATT yielded a switch fluorescence ratio of 1.02. Work on AGGAAAAGAT yielded a switch fluorescence ratio of 0.987. In the case of AGGAAAATCA, the switch fluorescence ratio is reported as 0.992. AGGAAATATA showed a switch fluorescence ratio of 0.96. For AGGAATCAGT, the switch fluorescence ratio was 0.988. In the case of AGGAATCTGT, the switch fluorescence ratio is reported as 0.965. AGGAATGAGC showed a switch fluorescence ratio of 1.01. Sequence AGGACCGAGC has a switch fluorescence ratio of 1.08. In the case of AGGACCGCGT, the switch fluorescence ratio is reported as 1.01. AGGACGCAAT gave a switch fluorescence ratio of 1.29. In the case of AGGACGGTTT, the switch fluorescence ratio is reported as 1. AGGACGTGAG gave a switch fluorescence ratio of 0.915. Work on AGGACTAGC yielded a switch fluorescence ratio of 1. For AGGACTAGGA, the switch fluorescence ratio was 0.997. With AGGACTCCGG the switch fluorescence ratio was 0.999. AGGACTGGTT was tested, and the switch fluorescence ratio was 0.961. Sequence AGGACTTGGC has a switch fluorescence ratio of 1.06. With AGGAGAAAGG the switch fluorescence ratio was 1.05. For AGGAGAGTAG, the switch fluorescence ratio was 0.967. With AGGAGCGAAA the switch fluorescence ratio was 1. In the case of AGGAGCGGCG, the switch fluorescence ratio is reported as 1.01. In the case of AGGAGGACGC, the switch fluorescence ratio is reported as 1.07. With AGGAGGCGGT the switch fluorescence ratio was 0.972. With AGGAGGGCAA the switch fluorescence ratio was 1.04. AGGAGTTCTA gave a switch fluorescence ratio of 0.976. Sequence AGGATAATTG has a switch fluorescence ratio of 0.958. In the case of AGGATACCCG, the switch fluorescence ratio is reported as 0.995. For AGGATAGAGA, the switch fluorescence ratio was 1. In the case of AGGATCAGTG, the switch fluorescence ratio is reported as 1.02. Work on AGGATGCAAT yielded a switch fluorescence ratio of 1.1. With AGGATGTTTA the switch fluorescence ratio was 0.976. Work on AGGATTGGGC yielded a switch fluorescence ratio of 0.973. AGGATTTCTT gave a switch fluorescence ratio of 1.04. In the case of AGGCAACGGA, the switch fluorescence ratio is reported as 0.986. AGGCAAGGTG gave a switch fluorescence ratio of 1.18. In the case of AGGCAGAAAC, the switch fluorescence ratio is reported as 1.07. AGGCAGAACT was tested, and the switch fluorescence ratio was 1.03. Sequence AGGCAGCTG has a switch fluorescence ratio of 1.04. In the case of AGGCAGTGAC, the switch fluorescence ratio is reported as 0.981. AGGCATCTTT was tested, and the switch fluorescence ratio was 0.965. For AGGCATGTAG, the switch fluorescence ratio was 0.987. In the case of AGGCATTGTC, the switch fluorescence ratio is reported as 1.07. Sequence AGGCATTTTG has a switch fluorescence ratio of 0.948. AGGCCAGAGA gave a switch fluorescence ratio of 0.992. With AGGCCATACG the switch fluorescence ratio was 1.01. Work on AGGCCCGCCG yielded a switch fluorescence ratio of 1.01. For AGGCCCTGCG, the switch fluorescence ratio was 1.24. With AGGCCCTTC the switch fluorescence ratio was 0.999. In the case of AGGCCGATTA, the switch fluorescence ratio is reported as 0.986. AGGCGACCGT gave a switch fluorescence ratio of 1.01. With AGGCGACTCT the switch fluorescence ratio was 0.941. For AGGCGCAGGC, the switch fluorescence ratio was 0.995. AGGCGCAGT gave a switch fluorescence ratio of 1.05. AGGCGCGA showed a switch fluorescence ratio of 1.03. For AGGCGCGACG, the switch fluorescence ratio was 1.02. Sequence AGGCGCGCGA has a switch fluorescence ratio of 1.01. AGGCGCGCGT showed a switch fluorescence ratio of 1.01. For AGGCGCGCTT, the switch fluorescence ratio was 0.977. With AGGCGCGGGC the switch fluorescence ratio was 0.977. AGGCGCTTG showed a switch fluorescence ratio of 1.06. AGGCGGCGCG was tested, and the switch fluorescence ratio was 0.996. In the case of AGGCGGCGGG, the switch fluorescence ratio is reported as 1. AGGCGGGCAA gave a switch fluorescence ratio of 1. For AGGCGGTTAG, the switch fluorescence ratio was 1.07. In the case of AGGCGTAGAA, the switch fluorescence ratio is reported as 1.04. With AGGCGTGTCG the switch fluorescence ratio was 1.03. Sequence AGGCTAGCCA has a switch fluorescence ratio of 0.981. Work on AGGCTCTTCG yielded a switch fluorescence ratio of 0.992. For AGGCTGAAG, the switch fluorescence ratio was 0.982. Sequence AGGCTGGCTT has a switch fluorescence ratio of 1.01. For AGGCTTATCA, the switch fluorescence ratio was 0.962. Work on AGGGAAATAT yielded a switch fluorescence ratio of 1.04. AGGGAACCG gave a switch fluorescence ratio of 1.13. Work on AGGGACTCGA yielded a switch fluorescence ratio of 0.961. In the case of AGGGACTTCT, the switch fluorescence ratio is reported as 1.06. AGGGAGCCAA was tested, and the switch fluorescence ratio was 0.968. AGGGAGTACT was tested, and the switch fluorescence ratio was 1.03. AGGGAGTGTT was tested, and the switch fluorescence ratio was 1.01. AGGGATCGGC was tested, and the switch fluorescence ratio was 0.935. AGGGATCTT was tested, and the switch fluorescence ratio was 1.03. With AGGGCACCGG the switch fluorescence ratio was 1.05. With AGGGCATGTA the switch fluorescence ratio was 0.979. AGGGCCAGCA showed a switch fluorescence ratio of 1.03. Sequence AGGGCCATTC has a switch fluorescence ratio of 1.01. AGGGCCCCCG showed a switch fluorescence ratio of 1.03. For AGGGCCGTGG, the switch fluorescence ratio was 1.05. Work on AGGGCGCAC yielded a switch fluorescence ratio of 1.02. AGGGCGCGGT gave a switch fluorescence ratio of 1.03. For AGGGCGGGC, the switch fluorescence ratio was 0.991. AGGGCGTGAC was tested, and the switch fluorescence ratio was 0.999. AGGGCTCACG showed a switch fluorescence ratio of 1.03. AGGGCTCGCG was tested, and the switch fluorescence ratio was 0.986. AGGGCTGTCG showed a switch fluorescence ratio of 1.03. AGGGGACCCA showed a switch fluorescence ratio of 0.943. Sequence AGGGGAGTCC has a switch fluorescence ratio of 0.992. Sequence AGGGGCACGT has a switch fluorescence ratio of 0.991. AGGGGCGACG gave a switch fluorescence ratio of 0.958. Work on AGGGGCTAA yielded a switch fluorescence ratio of 0.983. For AGGGGCTCTG, the switch fluorescence ratio was 1.03. AGGGGCTTAA gave a switch fluorescence ratio of 1.02. For AGGGGGACCT, the switch fluorescence ratio was 1.01. In the case of AGGGGGGGCA, the switch fluorescence ratio is reported as 1.03. AGGGGGT showed a switch fluorescence ratio of 1.09. AGGGGGTGAG showed a switch fluorescence ratio of 1.01. In the case of AGGGGTGAAT, the switch fluorescence ratio is reported as 1. Work on AGGGTATACA yielded a switch fluorescence ratio of 0.993. AGGGTCCCGG gave a switch fluorescence ratio of 0.987. In the case of AGGGTCGTTT, the switch fluorescence ratio is reported as 1. AGGGTGAGTG gave a switch fluorescence ratio of 1.03. Sequence AGGGTTCAA has a switch fluorescence ratio of 1.01. For AGGTAATTGC, the switch fluorescence ratio was 1.02. AGGTAATTTT gave a switch fluorescence ratio of 0.992.
